# Structures can show the parent of a compound that is named as a salt. This is one part of the list. Repeats are few or missing, and single values can be far off.
# Legend:
# OVCAR4 = test: log2 surviving fraction (library drug vs vehicle, or drug + carboplatin vs carboplatin alone; relative to plate median); ovarian cancer lines: OVCAR4 is platinum-sensitive and Ov4Carbo platinum-resistant; higher = more cell survival; settings: library drug concentration 10 µM, 7 days
# Ov4Carbo = test: as above; settings: library drug concentration 10 µM, 7 days
SMILES,log2 surviving fraction (OVCAR4; carboplatin co-treatment 0 µM),log2 surviving fraction (OVCAR4; carboplatin co-treatment 5 µM),log2 surviving fraction (Ov4Carbo; carboplatin co-treatment 0 µM),log2 surviving fraction (Ov4Carbo; carboplatin co-treatment 5 µM)
COc1ccc(CNc2nc(N3CCC[C@H]3CO)ncc2C(=O)NCc2ncccn2)cc1Cl [Avanafil],-0.698,0.377,-0.358,-0.168
CN(c1nccc(=O)[nH]1)C1CCN(c2nc3ccccc3n2Cc2ccc(F)cc2)CC1 [Mizolastine (Mizollen)],1.29,1.02,0.389,0.911
O=c1cc[nH]c(=O)[nH]1 [Uracil],0.175,-0.218,0.0477,-0.25
"CN(C)CCOc1ccc(/C(=C(/CCCl)c2ccccc2)c2ccccc2)cc1 [Toremifene Citrate (Fareston, Acapodene)]",-5.51,-1.82,-2.66,-3.35
CCCCNC(=O)NS(=O)(=O)c1ccc(C)cc1 [Tolbutamide],0.833,1.25,1.08,1.48
Nc1nc2n[nH]nc2c(=O)[nH]1 [Azaguanine-8],-2.78,-2.67,-3.18,-4.13
CN(C)C(=O)Oc1ccc[n+](C)c1 [Pyridostigmine Bromide (Mestinon)],1.1,-0.015,0.311,-0.0639
CCS(=O)(=O)CCn1c([N+](=O)[O-])cnc1C [tinidazole],0.0634,-0.285,-0.859,-1.1
O=C(O)CCCC[C@@H]1SC[C@@H]2NC(=O)N[C@@H]21 [Biotin (Vitamin B7)],0.845,0.284,0.648,-0.0648
O=C(O)Cc1cc(I)c(Oc2ccc(O)c(I)c2)c(I)c1 [Tiratricol],-0.886,-0.0736,-1.09,-0.371
CN(C)CCC(c1ccccc1)c1ccccn1 (stereo unspecified) [Pheniramine Maleate],-0.591,-0.289,-0.691,-0.706
CC1(O)CCOC(=O)C1 (racemic) [DL-Mevalonic Acid Lactone],-0.164,-3.11,1.16,-0.31
CC(C)OC(=O)OCOP(=O)(CO[C@H](C)Cn1cnc2c(N)ncnc21)OCOC(=O)OC(C)C [Tenofovir Disoproxil Fumarate],-0.566,-2.92,0.0568,-0.364
Cc1cnc(C(=O)O)c[n+]1[O-] [Acipimox],0.548,1.77,-1.23,0.636
CNS(=O)(=O)Cc1ccc2[nH]cc(CCN(C)C)c2c1 [Sumatriptan succinate],1.69,1.56,1.55,0.697
CC(=O)OCC1=C(C(=O)O)N2C(=O)[C@@H](NC(=O)CSc3ccncc3)[C@H]2SC1 [Cephapirin Sodium],-0.614,-0.388,-0.145,-2.3
C=CC(=O)N1CCC[C@@H](n2nc(-c3ccc(Oc4ccccc4)cc3)c3c(N)ncnc32)C1,-3.05,-2.44,-3.55,-3.41
CC1(C)S[C@@H]2[C@H](NC(=O)[C@H](N)c3ccccc3)C(=O)N2[C@H]1C(=O)O [Ampicillin Trihydrate],-0.00397,0.577,0.52,0.523
CC(C(=O)O)c1ccc2c(c1)Cc1cccnc1O2 (stereo unspecified) [Pranoprofen],1.12,-0.347,-1.16,0.212
CC(S)C(=O)NCC(=O)O (stereo unspecified) [Tiopronin (Thiola)],1.77,1.63,0.759,0.902
C=C(C)[C@@H]1[C@H]2OC(=O)[C@@H]1[C@]1(O)C[C@H]3O[C@]34C(=O)O[C@H]2[C@]14C [Picrotoxinin],-0.309,1.14,-0.0813,-1.35
C[C@H](NC(=O)Cc1cc(F)cc(F)c1)C(=O)N[C@H](C(=O)OC(C)(C)C)c1ccccc1,-0.576,-1.04,-0.681,-1.34
CC(O)(P(=O)(O)O)P(=O)(O)O [Etidronate (Didronel)],0.597,1.33,0.8,0.244
O=C(NC[C@H]1CN(c2ccc(N3CCOCC3=O)cc2)C(=O)O1)c1ccc(Cl)s1 [Rivaroxaban (Xarelto)],0.723,0.47,0.249,0.409
Cn1c(=O)c2c(ncn2CC2OCCO2)n(C)c1=O [Doxofylline],-0.349,0.714,0.652,0.712
NNC(=O)c1ccncc1.Nc1ccc(C(=O)O)c(O)c1 [Pasiniazid],-0.333,1.64,0.209,-1.95
COC(=O)C1=CO[C@@H](O[C@@H]2O[C@H](CO)[C@@H](O)[C@H](O)[C@H]2O)[C@@H]2C(CO)=CC[C@H]12 [Geniposide],1.39,1.65,1.96,0.96
CCCc1cc(=O)[nH]c(=S)[nH]1 [Propylthiouracil],0.0933,1.29,-0.986,1.8
Nc1ccc(O)c(C(=O)O)c1 [Mesalamine (Lialda)],0.000941,-0.21,-0.561,-0.806

# Reference: the supplement of paper PMC8047034
